From ChEMBL document CHEMBL5724801, “EUbOPEN Chemogenomics Library - Multiplex” (2024)
Certain results were filed several times, with different values. Only these are listed. An entry can have further records. Values given together repeat one measurement in other runs, samples, wells, individuals or studies.

Experiments:
Format in all cases: toxicity, cell-based
[1] = tested on: Fibroblast; experiment: Multiplex assay against human fibroblast
How it was run: (§1)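 Values for tubulin, mitochondrial-mass and membrane-permeability phenotypes are per cents of cells with healthy nuclei. These cells were identified by CellPathfinder machine-learning gating of live cells that had been stained at seeding with Hoechst33342, BioTracker Green Microtubule Cytoskeleton Dye, MitoTracker Red and Annexin V Alexa Fluor 680 and imaged on a CQ1 microscope at 37°C and 5% CO2 after compound addition. The gating first set Hoechst high-intensity objects apart from normal cells, then split normal cells into healthy, pyknosed or fragmented nuclei, and pyknosed cells into mitotic or apoptotic.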

[2] = tested on: HEK-293T; experiment: Multiplex assay against HEK293T; settings: human; how it was run: as §1
[3] = tested on: U2OS; experiment: Multiplex assay against U2OS; settings: human; how it was run: as §1
[4] = 12 h, 1 µM, compound concentration 1 uM
[5] = 48 h, 1 µM, compound concentration 1 uM
[6] = 48 h, 10 µM, compound concentration 10 uM
[7] = 12 h, 10 µM, compound concentration 10 uM
[8] = 24 h, 1 µM, compound concentration 1 uM
[9] = 24 h, 10 µM, compound concentration 10 uM

CCOC(=O)c1c(/C(C#N)=C\N)c2ccc(Cl)c(Cl)c2n1C
Population Apoptotic (%) [1, 4]: 3.57% and 14.63%
Population Mitochondria Different-Phenotype (%) [1, 5]: 15.15% and 4.02%
Population Tubulin-Different-Phenotype (%) [1, 6]: 3.37% and 17.56%
Population Tubulin-Different-Phenotype (%) [2, 4]: 2.79% and 31.03%
Population Tubulin-Different-Phenotype (%) [2, 7]: 6.95% and 34.04%
Total Cell Count [2, 8]: 543 and 155
Population Tubulin-Different-Phenotype (%) [2, 5]: 0.71% and 19.7%
Total Cell Count [2, 5]: 1633 and 274
Population Tubulin-Different-Phenotype (%) [2, 6]: 0.54% and 17.69%
Total Cell Count [2, 6]: 1286 and 325
Total Cell Count [3, 4]: 471 and 149
Population Fragmented Nuclei (%) [3, 7]: 1.91% and 12.2%
Total Cell Count [3, 8]: 613 and 182
Total Cell Count [3, 5]: 1136 and 307

Cc1ccc(OCC(O)C(C)NC(C)C)c2c1CCC2.Cl (stereo not drawn)
Population Hoechst High Intensity Objects (%) [2, 7]: 3% and 18%
Population Mitotic Cells (%) [3, 4]: 36% and 9%

COc1cc(OC2CCN(C(C)=O)CC2)ccc1C(=O)N1CCC(N2C(=O)OCc3ccccc32)CC1
Population Fragmented Nuclei (%) [1, 7]: 10% and 32%
Population Fragmented Nuclei (%) [1, 6]: 10% and 36%
Population Pyknosed Nuclei (%) [3, 6]: 14% and 3%

COc1ccc(CC(=O)NC(N/C(=N/C#N)Nc2cccc3ncccc23)C(C)(C)C)cc1OC (stereo not drawn)
Population Apoptotic (%) [1, 4]: 4.17% and 14.29%
Population Apoptotic (%) [1, 8]: 4.35% and 23.08%
Population Apoptotic (%) [1, 9]: 7.69% and 29.63%
Population Membrane Permeable-Phenotype (%) [1, 6]: 2.06% and 14.77%
Population Healthy Nuclei (%) [2, 4]: 58.89% and 18.75%
Population Tubulin-Different-Phenotype (%) [2, 4]: 7.55% and 36.67%
Population Tubulin-Different-Phenotype (%) [2, 7]: 8.48% and 45.45%
Total Cell Count [2, 8]: 549 and 181
Population Pyknosed Nuclei (%) [2, 5]: 10.45% and 36.6%
Population Tubulin-Different-Phenotype (%) [2, 5]: 1.73% and 48.72%
Total Cell Count [2, 5]: 1398 and 194
Population Apoptotic (%) [2, 6]: 6.8% and 22.54%
Population Pyknosed Nuclei (%) [2, 6]: 10.62% and 36.79%
Population Tubulin-Different-Phenotype (%) [2, 6]: 2.98% and 36.44%
Total Cell Count [2, 6]: 971 and 193
Total Cell Count [3, 6]: 965 and 285

Cc1cnc(-c2cc(N3CCN(C(=O)CCS(C)(=O)=O)CC3)ncc2Cl)c(C)c1
Population Fragmented Nuclei (%) [1, 8]: 10% and 35%
Population Membrane Permeable-Phenotype (%) [3, 7]: 4% and 20%
Population Tubulin-Different-Phenotype (%) [3, 7]: 1% and 15%
Population Membrane Permeable-Phenotype (%) [3, 9]: 4% and 18%
Population Mitotic Cells (%) [3, 5]: 21% and 5%
Total Cell Count [3, 6]: 485 and 141

Cc1c(C(=O)NCCCN(C)C)sc2ncnc(Nc3ccc(F)cc3OC(C)CF)c12 (stereo not drawn)
Population Apoptotic (%) [1, 4]: 7.58% and 25%
Population Apoptotic (%) [1, 8]: 5.26% and 27.27%
Population Healthy Nuclei (%) [2, 4]: 64.3% and 12.16%
Population Tubulin-Different-Phenotype (%) [2, 4]: 15.35% and 55.56%
Population Membrane Permeable-Phenotype (%) [2, 7]: 1.89% and 13.33%
Population Mitochondria Different-Phenotype (%) [2, 7]: 49.06% and 6.67%
Population Healthy Nuclei (%) [2, 8]: 77.04% and 23.23%
Population Pyknosed Nuclei (%) [2, 8]: 20.52% and 74.19%
Total Cell Count [2, 8]: 575 and 155
Population Pyknosed Nuclei (%) [2, 5]: 9.51% and 42.72%
Population Tubulin-Different-Phenotype (%) [2, 5]: 4.02% and 74.34%
Total Cell Count [2, 5]: 1377 and 206
Population Mitochondria Different-Phenotype (%) [3, 7]: 3.55% and 62.89%
Total Cell Count [3, 7]: 445 and 148
Population Mitochondria Different-Phenotype (%) [3, 8]: 0.25% and 10.87%
Population Mitochondria Different-Phenotype (%) [3, 9]: 10.23% and 68.63%
Total Cell Count [3, 5]: 890 and 276
Population Mitochondria Different-Phenotype (%) [3, 6]: 8.08% and 43.33%
Total Cell Count [3, 6]: 538 and 175

Cc1cc(=O)n(C)c2cc(N3C(=O)CC[C@H](NS(=O)(=O)CC(C)C)[C@H]3c3ccc(Cl)cc3)ccc12
Population Membrane Permeable-Phenotype (%) [1, 8]: 1% and 13%
Population Mitotic Cells (%) [3, 5]: 22% and 5%

Nc1nc(-c2ccco2)c2cnn(Cc3ccccc3F)c2n1
Population Fragmented Nuclei (%) [1, 4]: 10% and 31%
Population Fragmented Nuclei (%) [1, 8]: 9% and 29%
Population Membrane Permeable-Phenotype (%) [1, 9]: 1% and 15%
Population Mitotic Cells (%) [3, 8]: 3% and 15%
Total Cell Count [3, 5]: 462 and 141

CCc1cc2cc(NS(=O)(=O)c3ccc(C#N)cc3)ccc2n(CC)c1=O
Population Membrane Permeable-Phenotype (%) [1, 7]: 1% and 12%
Population Membrane Permeable-Phenotype (%) [1, 6]: 1% and 18%
Population Mitotic Cells (%) [3, 9]: 4% and 20%

CN(C)C(=O)Cn1cc(-c2ccc(-c3cncc4ccccc34)cc2)cn1
Population Fragmented Nuclei (%) [1, 4]: 10% and 33%
Population Fragmented Nuclei (%) [1, 7]: 13% and 40%
Population Membrane Permeable-Phenotype (%) [1, 7]: 1% and 18%
Population Fragmented Nuclei (%) [1, 8]: 12% and 40%
Population Apoptotic (%) [1, 6]: 72% and 12%
Population Mitotic Cells (%) [1, 6]: 27% and 87%
Population Hoechst High Intensity Objects (%) [2, 7]: 6% and 19%
Population Mitotic Cells (%) [3, 7]: 33% and 0%
Population Mitotic Cells (%) [3, 6]: 25% and 7%

Cc1cccc(NC(=O)CN2CCC(c3ccccn3)CC2)c1.Cl.Cl
Population Fragmented Nuclei (%) [1, 7]: 8% and 45%
Population Fragmented Nuclei (%) [1, 9]: 11% and 45%
Population Pyknosed Nuclei (%) [1, 9]: 6% and 20%
Population Fragmented Nuclei (%) [1, 6]: 17% and 54%
Population Mitochondria Different-Phenotype (%) [1, 6]: 5% and 16%
Population Mitotic Cells (%) [1, 6]: 23% and 71%
Population Mitotic Cells (%) [3, 4]: 9% and 42%
Population Mitotic Cells (%) [3, 5]: 17% and 5%
Population Mitotic Cells (%) [3, 6]: 3% and 16%
